Reference: paper PMC4336329 (PLoS ONE, 2015)
The campaign covered roughly 310,000 compounds. About 2,200 (0.71%) showed an effect of 50% or more. The effect is printed as a negative number. The list shows a part of the results.

target: human ether-à-go-go-related gene (hERG) potassium channel (human, UniProt Q12809); test: primary screen, population patch clamp on CHO cells stably expressing hERG
Sequence (Q12809 whole entry, looked up): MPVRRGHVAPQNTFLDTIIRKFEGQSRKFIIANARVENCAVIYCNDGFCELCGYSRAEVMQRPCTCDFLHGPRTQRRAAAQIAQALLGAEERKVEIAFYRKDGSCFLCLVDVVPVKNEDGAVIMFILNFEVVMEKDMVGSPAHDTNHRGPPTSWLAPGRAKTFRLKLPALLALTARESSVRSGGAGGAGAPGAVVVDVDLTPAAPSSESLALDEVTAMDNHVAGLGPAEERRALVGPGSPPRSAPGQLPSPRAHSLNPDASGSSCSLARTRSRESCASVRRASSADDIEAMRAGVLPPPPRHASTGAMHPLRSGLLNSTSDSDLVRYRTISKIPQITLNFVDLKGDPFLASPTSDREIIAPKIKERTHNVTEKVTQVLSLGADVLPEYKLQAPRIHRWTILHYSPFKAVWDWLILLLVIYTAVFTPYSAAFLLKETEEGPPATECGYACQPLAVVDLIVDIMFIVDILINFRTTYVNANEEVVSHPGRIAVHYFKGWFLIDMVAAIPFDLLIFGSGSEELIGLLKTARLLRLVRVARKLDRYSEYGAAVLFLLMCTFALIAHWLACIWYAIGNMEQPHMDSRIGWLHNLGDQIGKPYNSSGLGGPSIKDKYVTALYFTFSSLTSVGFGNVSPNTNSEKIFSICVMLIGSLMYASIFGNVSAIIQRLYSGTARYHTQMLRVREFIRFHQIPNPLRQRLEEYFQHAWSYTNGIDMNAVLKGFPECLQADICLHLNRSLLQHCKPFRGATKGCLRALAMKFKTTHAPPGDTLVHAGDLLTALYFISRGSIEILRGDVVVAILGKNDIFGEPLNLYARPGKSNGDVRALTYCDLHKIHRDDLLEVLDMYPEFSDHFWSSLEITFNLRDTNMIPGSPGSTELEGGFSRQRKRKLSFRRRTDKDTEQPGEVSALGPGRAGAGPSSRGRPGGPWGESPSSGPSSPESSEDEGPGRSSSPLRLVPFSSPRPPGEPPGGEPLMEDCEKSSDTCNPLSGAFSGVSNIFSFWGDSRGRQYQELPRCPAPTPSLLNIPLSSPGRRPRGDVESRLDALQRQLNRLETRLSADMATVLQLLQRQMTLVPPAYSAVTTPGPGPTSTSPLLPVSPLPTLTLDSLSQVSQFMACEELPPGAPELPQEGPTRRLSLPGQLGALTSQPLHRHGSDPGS

| Structure (SMILES) | hERG current change (%, negative = inhibition) at 1uM [%] |
| --- | --- |
| Cc1nn(CC(=O)Nc2ccc(C(=O)N(C)C)cc2)c(=O)c2ccccc12 | 15.6 |
| Cc1ccc(NC(=O)C(C)c2ccc([N+](=O)[O-])cc2)cc1Cl (stereo not shown) | -3.06 |
| CCN1CCN(CC(=O)c2c[nH]c3ccccc23)CC1 | 3.32 |
| COc1ccc(OC)c(/C=N/NC(=O)CN2CCSCC2)c1 | -2.03 |
| NCCCn1cnc2ccccc21 | 14.8 |
| Cc1cc(OCC(=O)OCC(=O)N2c3ccccc3NC(=O)C2(C)C)ccc1Cl | 14.7 |
| CC1CN(c2oc(-c3ccco3)nc2C#N)CC(C)O1 (stereo not shown) | 6.96 |
| c1ccc(Cn2nnnc2C(c2ccccc2)N2CCN(c3nc4ccccc4s3)CC2)cc1 (stereo not shown) | 11.1 |
| CC1(C)CC2(CCO1)C(Nc1ccccc1)=NC(=S)N2CC(N)=O (stereo not shown) | 11.8 |
| CCn1c(N)c(C(=O)NCc2cccnc2)sc1=S | 3.53 |
| CCCCCOCC1CC(C/C(C)=N/NC(N)=O)(C(=O)OCC)C(=O)O1 (stereo not shown) | 5.89 |
| CC(C)C(=O)NC(NCC1CCCO1)C(Cl)(Cl)Cl (stereo not shown) | 15.7 |
| COc1cccc(N2CCN(c3ccc4nnc(CCC(=O)Nc5cccc(C(C)=O)c5)n4n3)CC2)c1 | 0.828 |
| CCOc1ccccc1NS(=O)(=O)c1ccc2c(c1)N(C)CCO2 | 10.1 |
| CO/N=C(\C(=O)N[C@@H]1C(=O)N2C(C(=O)[O-])=C(COC(N)=O)CS[C@H]12)c1ccco1.[Na+] | 14 |
| COc1ccccc1C(C)N(C)Cc1nc(COc2ccccc2)no1 (stereo not shown) | 16.2 |
| CC(=O)Nc1ccc2c(c1)C(=O)N(c1cccc(C)c1)C2=O | 8.62 |
| CC(C)CC(=O)N1CCN(S(=O)(=O)c2ccc3ccccc3c2)CC1 | 4.05 |
| CC1=C(C(=O)N2CCCCCC2)C2(CCC(C)CC2)OC1=O (stereo not shown) | 8.36 |
| CC(C)COc1ccc(C(=O)N/N=C/c2ccoc2)cc1 | 4.93 |
| CCc1ccccc1NC(=O)CC(NCc1ccccc1)C(=O)O (stereo not shown) | 14.9 |
| Cc1cc(C)c(NC(=O)CCCN2CCN(C)CC2)c(C)c1 | -4.87 |
| Cc1cc(C)cc(NC(=O)N2CCNC(=O)C2CC(=O)Nc2cc(Cl)ccc2Cl)c1 (stereo not shown) | 0.0632 |
| CCCCS(=O)(=O)NC1=NCN(CC)CN1 | 12.2 |
| COc1ccccc1NC(=O)CN1C(=O)COc2ccc(S(=O)(=O)N3CCOCC3)cc21 | 8.74 |
